Consider 62 molecules from PubChem BioAssay AID1159614 (National Center for Advancing Translational Sciences (NCATS), 2016).

About 65 (0.1%) of roughly 45,000 compounds were called active. Calls follow the shape of the dose curve; as a rule, active = well fitted activation curve with a large enough effect; inconclusive = small, poorly fitted or top-dose-only effect; inactive = no such curve, though single readings can be large or run the other way. The list shows a part of the results.

In this assay the target is Galactocerebrosidase (Homo sapiens) (UniProt P54803). The assay can be described thus: A Novel Cell-Based Assay to Identify Small Molecules for B -Galactocerebrosidase. Also: 0% is about no effect; nearly all actives have a fitted effect of over 65% in size. To be noted: 145M-Twi-hGALC-G270D cells, HMU-beta-Gal fluorescence, 48 h; series mostly up to 57.5 µM; activation: at the top concentration. Summed up: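 qHTS, 1536-well; 145M-Twi-hGALC-G270D cells (WT line also made) in DMEM/F12 + 10% FBS; compound incubation on live cells; HMU-β-gal 0.1 mM final, pH 5.2, NaTC; carbonate stop; fluorescence increase = enhanced residual activity.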
Sequence of UniProt P54803 (P54803 whole entry, looked up): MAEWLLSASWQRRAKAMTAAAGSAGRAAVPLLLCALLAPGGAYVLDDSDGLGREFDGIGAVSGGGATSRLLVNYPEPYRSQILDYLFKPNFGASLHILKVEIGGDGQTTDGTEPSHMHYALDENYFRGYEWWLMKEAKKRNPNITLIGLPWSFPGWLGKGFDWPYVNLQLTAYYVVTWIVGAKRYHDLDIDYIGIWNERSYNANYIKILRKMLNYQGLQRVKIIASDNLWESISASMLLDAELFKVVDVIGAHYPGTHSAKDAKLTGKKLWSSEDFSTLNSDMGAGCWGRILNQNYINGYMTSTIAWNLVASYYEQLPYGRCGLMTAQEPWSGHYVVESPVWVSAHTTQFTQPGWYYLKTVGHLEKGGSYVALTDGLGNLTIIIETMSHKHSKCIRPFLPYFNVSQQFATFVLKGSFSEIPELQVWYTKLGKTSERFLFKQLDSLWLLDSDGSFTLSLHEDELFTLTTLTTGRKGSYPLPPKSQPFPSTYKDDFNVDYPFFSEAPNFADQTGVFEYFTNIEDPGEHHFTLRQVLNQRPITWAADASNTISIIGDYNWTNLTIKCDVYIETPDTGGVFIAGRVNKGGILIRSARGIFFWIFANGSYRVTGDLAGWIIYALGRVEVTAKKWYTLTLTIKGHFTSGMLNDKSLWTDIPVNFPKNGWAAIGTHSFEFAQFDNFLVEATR
As for `CCOC(=O)c1c(NC(=O)COc2ccc(Cl)cc2C)sc(C(C)=O)c1C`, the “activation” value was inactive: -14.5%.
Then `CCN1CCN(c2cc(C)c3cc(NC(=O)c4ccccc4F)ccc3n2)CC1`, with inactive: -7.52%.
Then `Cc1ccc(S(=O)(=O)c2cn(C)c3cc(N4CCCCC4)c(F)cc3c2=O)cc1`, with inactive: -13.5%; and `COc1ccc(C)cc1NC(=O)N1CCC(CN2CCC(C)CC2)CC1`, with inactive: -9.38%.
The figure for `Cc1cc(OCC(=O)NCC2(N3CCOCC3)CCCCC2)ccc1Cl` is inactive: -0.803%; for `CCc1noc(-c2ccc(N3CCCCC3)c([N+](=O)[O-])c2)n1` it is inactive: -17.5%.
Regarding `CCCN(CCC)CCNC(=O)c1cc(-c2ccc(Br)s2)nc2ccccc12`, the “activation” value was inactive: 12.1%.
Consider `Brc1ccc2nc(-c3ccccc3)c(Nc3ccc4c(c3)OCO4)n2c1`, for which the “activation” value is inactive: -8.25%.
The figure for `CCC(=O)N1CCc2cc(CNC(=O)Nc3cc(Cl)ccc3C(=O)OC)ccc21` is inactive: -16.8%; for `CCc1cccc(NC(=O)C(CC(C)C)NS(=O)(=O)c2ccc3c(c2)oc(=O)n3C)c1` (configuration not stated) it is inactive: -38.4%; for `COc1ccccc1CN1CCC(CNC(=O)c2cnn(-c3ccc(C)c(C)c3)c2C2CCN(C(=O)OC(C)(C)C)CC2)CC1` it is inactive: -7.85%.
The figure for `Cc1ccc(CN2C(=O)c3ccccc3Sc3ccc(C(=O)NCCCN4CCOCC4)cc32)cc1` is inactive: 2.74%; for `Cc1cc(Cl)ccc1OCc1cc(=O)n2c3c(sc2n1)CCCC3` it is inactive: -19%; for `Cn1nnnc1SCCNCc1ccc(OCc2ccc(Cl)cc2)cc1` it is inactive: 6.24%.
Then `O=C(Nc1cccc(Cl)c1)C1CCCN1S(=O)(=O)c1cccc2cccnc12` (configuration not stated), with inactive: -7.75%.
As for `CCc1ccc(CNC(=O)CN2C(=O)CCn3nc(-c4cn(C)c5ccccc45)cc32)cc1`, the “activation” value was inactive: -23.8%.
On to `COc1ccccc1-c1nnc(SCC(=O)c2ccc(F)cc2)n1-c1ccccc1`, for which the “activation” value is inactive: -36%.
Then `COc1ccc(C(=O)Nc2ccc(N3CCOCC3)c(C(F)(F)F)c2)cc1OC`, with inactive: 7.26%; and `Cc1cccc(NC(=O)CSc2nc(=O)n(Cc3cccnc3)c3c2CCC3)c1C`, with inactive: -7.69%; and `C[C@H]1O[C@@H](n2cc(F)c(=O)[nH]c2=O)[C@H](O)[C@@H]1O`, with inactive: -13.2%.
As for `Cc1oc(-c2cccc(Cl)c2)nc1CN1CCC(C(=O)NCCc2ccc(Cl)cc2)CC1`, the “activation” value is inactive: -6.77%.
The figure for `COc1cccc(OCC(=O)Nc2nnc3n2CCS3)c1` is inactive: -10.8%.
Then `CCc1ccc(C2=C(C)C(N3CCC(C(=O)NCCc4ccco4)CC3)=NS2(=O)=O)cc1`, with inactive: -17.8%; and `COc1ccc(NC(=O)c2cc3c(=O)n(Cc4cccnc4)ccc3nc2C)cc1Cl`, with inactive: -17.6%; and `COc1ccccc1NC(=O)c1cc(S(=O)(=O)N2CCc3ccccc32)ccc1F`, with inactive: -5.74%.
Then `COc1ccc(S(=O)(=O)c2cn(Cc3ccccc3)c3ccc(OC)cc3c2=O)cc1`, with inactive: -11.4%; and `O=[N+]([O-])c1nccn1CO[C@@H](CO)[C@H](O)CO`, with inactive: -5.87%; and `COc1cc(-c2nnc(SCC(=O)Oc3ccccc3Cl)o2)cc(OC)c1OC`, with inactive: -8.56%.
For `CN(C)c1ccc(C(CNS(=O)(=O)c2ccc(F)cc2)N2CCc3ccccc32)cc1` (configuration not stated), the “activation” value is inactive: 8.85%.
The figure for `Cc1cccc(N2CCN(c3c4c(nc5nncn35)CCC4)CC2)c1C` is inactive: 8.63%.
As to `C=Cc1ccc(Cn2c(=O)cc(C)c3c(C)nn(C)c32)cc1`, the “activation” value is inactive: -11.4%.
The figure for `COc1ccccc1Cc1nc2ccccc2nc1SCC(=O)N1CCC(C)CC1` is inactive: -12.4%; for `Cc1cccc(C(=O)Nc2ccc(N3CCN(c4ccc(F)cc4)CC3)c(C(=O)O)c2)c1` it is inactive: -19.2%.
On to `CCOC(=O)c1cc(-c2ccccc2)n(CCCC(=O)Nc2cc(C)ccc2OC)c1C`, for which the “activation” value is inactive: -14.5%.
The figure for `O=c1c(N2CCc3ccccc3C2)csc2ccc(Br)cc12` is inactive: -25.1%; for `CC(C)CCN(Cc1ccco1)C(=O)Cn1ncc2c([nH]c3ccccc32)c1=O` it is inactive: -2.8%.
The figure for `COc1ccccc1NC(=O)c1cc(C2CC2)nc2c1c(C)nn2-c1ccc(C)cc1` is inactive: -4.06%; for `CN1C(=O)c2[nH]nc(-c3ccc(F)cc3)c2C1c1ccccn1` (configuration not stated) it is inactive: -25.6%; for `COc1ccc(S(=O)(=O)c2cn(Cc3ccccc3)c3cc(F)c(F)cc3c2=O)cc1` it is inactive: -18.4%.
Then `O=c1c(S(=O)(=O)c2ccc(Cl)cc2)cn(Cc2ccc(F)cc2)c2ccc(F)cc12`, with inactive: 2.63%; and `COc1ccc(Nc2cc(C(=O)NCc3ccccc3)c3ccccc3n2)cc1OC`, with inactive: -0.572%.
Consider `CCOc1ccc(C(=O)NCc2ccc3c(c2)CCN3C(=O)c2ccc(C)cc2)cc1OCC`, for which the “activation” value is inactive: -7.42%.
Then `Cc1ccc2nc(SCC(=O)Nc3ccc(C#N)cc3)[nH]c2c1`, with inactive: -12.9%; and `Cc1ccn2c(Nc3ccc4c(c3)OCCO4)c(-c3ccc(C)s3)nc2c1`, with inactive: -10.4%; and `Cc1c(C(=O)N2CCC(C)CC2)c(S(=O)(=O)N2CCN(c3cccc(Cl)c3)CC2)c(C)n1C`, with inactive: -6.79%.
Take `COc1ccc(OC)c(NC(=O)CCc2nc(-c3ccc(C)cc3)no2)c1`: the “activation” value is inactive: -2.24%.
The figure for `O=C(CSc1ccc2nc(-c3ccccc3)cn2n1)Nc1cccc(F)c1` is inactive: -2.77%; for `C=CCNc1nc(NCC=C)nc(N2CCN(C(c3ccc(F)cc3)c3ccc(F)cc3)CC2)n1` it is inactive: -10.8%.
On to `COc1ccc(NC(=O)c2c(NC(=O)Cc3ccccc3)sc3c2CCCC3)cc1`, for which the “activation” value is inactive: -19.8%.
Then `Cc1cccc(NC(=O)CSc2nc3ccc(NC(=O)COc4ccccc4F)cc3s2)c1`, with inactive: 1%; and `OCCN1CCN(CCCN2c3ccccc3C=Cc3ccccc32)CC1`, with inactive: -16.6%; and `Cc1ccc(NC(=O)C2CCCN2S(=O)(=O)c2ccc3c(c2)CCCC(=O)N3)cc1Cl` (configuration not stated), with inactive: -8.5%.
Then `CCN(CC)CCCNC(=O)CN1N=C(c2ccccc2)CCC1=O`, with inactive: 1.53%; and `Cc1cc(F)ccc1NC(=O)Cn1c(=O)ccc2cc(S(=O)(=O)N3CCC(C)CC3)ccc21`, with inactive: -8.68%; and `COc1ccc(Cn2nnc3c(=O)[nH]c(C4CCN(C(=O)c5ccc(C)cc5)CC4)nc32)cc1OC`, with inactive: 10.6%.
The figure for `COc1ccc(NC(=O)Cn2c(=O)n(Cc3ccc(C(=O)NCc4ccccc4Cl)cc3)c(=O)c3ccccc32)cc1` is inactive: 4.38%; for `Cc1ccc(NC(=O)Cn2nnc(C(=O)NCc3cccs3)c2N)cc1Cl` it is inactive: -7.37%.
`COc1ccc(CNC(=O)c2ccc(CNS(=O)(=O)c3ccc(F)cc3)cc2)cc1`: the “activation” value was inactive: 6.77%.
For `COC(=O)c1sccc1S(=O)(=O)N(CC(=O)NCc1ccc(F)cc1)c1ccc(Cl)cc1`, the “activation” value was inactive: -4.35%.
Then `Cc1nn(CC(=O)N2CCN(c3cccc(C(F)(F)F)c3)CC2)c(=O)c2cccn12`, with inactive: -6.4%; and `Cc1nn(C)c2c1c(C(F)(F)F)cc(=O)n2C(C)C(=O)NCc1ccccc1Cl` (configuration not stated), with inactive: 15.6%.
With `Cc1ccccc1NC(=O)CSc1nnc(-c2cccs2)o1`, the “activation” value was inactive: -9.51%.
